{"source": "paper PMC12136788", "binders": {"B1": {"name": "chr12:72996793:72996794:+_ENSMUSG00000034574_ENSMUST00000085299|mus_hu|FALSE|FALSE (ssRNA)", "RNA": "GGGAGUUCUACAGUCCGACGAUCAGGGGGCAUGGGCAAUGCUGGUUCCAUGGUCUGAAGCGCAAAGUUGCUAUCAUUUCGCAGCCGAUACGUGAUUUCUGGGUGAUCAUUAUUUCGGAAACAGCAAAAGAUGAAUGAAAUACCCAACAGAGGAUUGAGCAUCA"}, "B2": {"name": "chr10:21962475:21962476:+_ENSG00000078403_ENST00000307729|hu_hu|FALSE|FALSE (ssRNA)", "RNA": "GGGAGUUCUACAGUCCGACGAUCUUCAAAGCUUUUAGGCUGUGAAGUAACAGCUGAGGUUGAAGGGAGGCCAAUUAAGGUACUAAAACUAUUUACCCCCCCUUCCUGGCUUCCAGACUCUCCUUUAUGUACAUCUUUGGUUGCCAACAGAGGAUUGAGCAUCA"}, "B3": {"name": "chr17:15081082:15081083:+_ENSMUSG00000050088_ENSMUST00000052691|mus_hu|motif|central (ssRNA)", "RNA": "GGGAGUUCUACAGUCCGACGAUCUCCCAGAGUGUGGUCAACGACUCAAAAGAGAAUUUCAAGUACCAGUUUCAAAAUGCGGAUUAAUAUCGUCCAGAGAACAGAUUCCUCCUCUUGCGAGGCGUCUUCCGGGGCACCAGCGUGCAACAGAGGAUUGAGCAUCA"}, "B4": {"name": "chr1:39494564:39494565:+_ENSG00000168653_ENST00000372967|hu_hu|FALSE|FALSE (ssRNA)", "RNA": "GGGAGUUCUACAGUCCGACGAUCACCUGCACGUCUCAUCGUUUUCUGCCGAAGCAAACACUCUACGAAAUCAUCAUAUUCUAUCUUGCACUCUUUCUCUGCCCGAGUAUAACCGAUUCCAUGUGCACAUUCUAUCCAUUCUUUCAACAGAGGAUUGAGCAUCA"}, "B5": {"name": "chr11:29606814:29606815:+_ENSMUSG00000020458_ENSMUST00000102843|mus_hu|motif|central (ssRNA)", "RNA": "GGGAGUUCUACAGUCCGACGAUCCAAUUUAGUAAGAGCUGUAGGUAACUCUUGUUGAUUAUGAAGGAUGUUAUUACGGACGGACUUCUCUUCUUCAUCUUUAUUUUUCACGAUUAUUUCUUCCCUAGGAUUUGCUACUAUUACCAACAGAGGAUUGAGCAUCA"}, "B6": {"name": "216737564_216737684_952_CDS_ENSG00000196482_ENST00000408911|human|control|control (ssRNA)", "RNA": "GGGAGUUCUACAGUCCGACGAUCAAUAUGCUUCGCCCAUCCAAUGAUAACCACCAACUCUCGGUCGGCCAAGUCACACAGUGUAGUGAGGGCUUUGAUGUCACUGUCGGGGACAGUAGGGUCAGGCAUGGCAUAGAUCUUCUCCAACAGAGGAUUGAGCAUCA"}, "B7": {"name": "chr6:67234108:67234109:+_ENSMUSG00000036371_ENSMUST00000042990|mus_hu|FALSE|FALSE (ssRNA)", "RNA": "GGGAGUUCUACAGUCCGACGAUCGCUACCAAUACAUUUCUAAAUACAAAACUGACUACCAUAUUUGUUACUUCUGUGUAGCGGGAGAAGUUCAUUUUUAAAACAGAUAAAAUUCAGUCUUUAGGUGUGAAUGGUAUGAAUGACCAACAGAGGAUUGAGCAUCA"}, "B8": {"name": "chr3:45751083:45751084:+_ENSG00000211456_ENST00000389061|hu_hu|motif|central (ssRNA)", "RNA": "GGGAGUUCUACAGUCCGACGAUCCCAUACAAACCGCUGAUCUGCCCUUUCCAAGAGACUCAUUUCUUGGAAUUCAGGACGGGUGUUGGAUAGCCGCUGCAAAGUAUGGGUCAAAUCAUAUGUUGUUGAAAAGUAAAAUCCAUCCAACAGAGGAUUGAGCAUCA"}, "B9": {"name": "chr2:120444880:120444881:+_ENSMUSG00000027285_ENSMUST00000124187|mus_hu|FALSE|FALSE (ssRNA)", "RNA": "GGGAGUUCUACAGUCCGACGAUCCUACUUGGCAUUAAUAGUUUGGACAUGAACUUUAGAAGUAAAAGGUAAAGGAGGCAUUAUAAUAUCAUGUUUAUAAAGAUAACUUUCUUCAGCUAAUAUUUUGGGGAUACAAGACGAAACCAACAGAGGAUUGAGCAUCA"}, "B10": {"name": "chr12:48362563:48362564:+_ENSG00000134291_ENST00000256686|hu_hu|hu_hu_hu_mus_False|18_18 (ssRNA)", "RNA": "GGGAGUUCUACAGUCCGACGAUCUCCGUCAAGCCCUUCGAUAGACCCUUGCGGGGGAAACUGUAAUCACUUUGUAUGGGGAAGGAAAAGAAACGCCAAAAACUUUCCAAAAAGCGGUUCAAAAAGCAGGCGGGAGGGGGAGGUCAACAGAGGAUUGAGCAUCA"}, "B11": {"name": "16580588_16583870_601_3pUTR_ENSMUSG00000020593_ENSMUST00000067124|mouse|control|control (ssRNA)", "RNA": "GGGAGUUCUACAGUCCGACGAUCGUUCUGCUUCCAUCCAUCGGUGCUGUGUCCUCAUCCGAGCUCAUCUCUAUGGGAAACAUGUCCUCAUCCUCAGAUGUGUUGACAUUGUCAUCUCUUUUGAGAUUGUCCAACUGGGCCUUCCAACAGAGGAUUGAGCAUCA"}, "B12": {"name": "25093797_25093917_641_ncRNA_ENSMUSG00000074282_ENSMUST00000137781|mouse|control|control (ssRNA)", "RNA": "GGGAGUUCUACAGUCCGACGAUCCUGAGCCAUCCCUCUAGCCCCAGAAAGAUUUUUAGUGUUAAAAAAUAAAUGUUCACCUAUCCACUACAUGUGUGGAGGUGAUUACAAUUAGAGAAGGCAUAAAACCACGGCAUCACACUGCAACAGAGGAUUGAGCAUCA"}, "B13": {"name": "chr9:95013113:95013114:-_ENSG00000196305_ENST00000443024|hu_hu|hu_hu_hu_mus_False|1_68 (ssRNA)", "RNA": "GGGAGUUCUACAGUCCGACGAUCCUCAGUCAGAAAGGGCGUGUAAGGGGCCAUCAGUCUGCACAGAGAAAGCAGAACACUGAACAGUGUCUCCAGAGCCAUGACACAGUCUUCCACCCCACUCUCACCCUUUAACCUUCUGCGCAACAGAGGAUUGAGCAUCA"}, "B14": {"name": "chr7:27827042:27827043:+_ENSG00000106052_ENST00000265393|hu_hu|motif|central (ssRNA)", "RNA": "GGGAGUUCUACAGUCCGACGAUCUUUGUUCCCAUCUAAAUUUUUUAAAGUCUGGACCUCUGACAUAAGCUUGGUAUUUUCGGUUUCUGUAUUCUUCAAAUGUACCUUAUAAAGUUCCUUUUCAUCCUUCUCUGUCUUCAACUGCAACAGAGGAUUGAGCAUCA"}}, "note": "This is one part of the list.", "data": [{"target": "T1, UNK ZnF1-3 (human, UniProt Q9C0B0 31-174)", "T1 sequence": "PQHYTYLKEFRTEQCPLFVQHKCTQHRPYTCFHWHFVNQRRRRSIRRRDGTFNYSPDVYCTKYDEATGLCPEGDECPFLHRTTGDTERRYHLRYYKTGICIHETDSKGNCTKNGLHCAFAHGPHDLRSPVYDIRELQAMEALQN", "experiment": "nsRBNS (natural sequence RNA bind-n-seq); RBNS binding buffer (assumed for nsRBNS): 25 mM Tris pH 7.5, 150 mM KCl, 3 mM MgCl2, 0.01% Triton X-100, 500 ug/ml BSA, 20 U/ml SUPERase-In, 4 C; UNK is unkempt and MSI1 is Musashi-1; names of the RNAs are library labels; protein concentration not given here; high values mean tight binding", "units": {"binding signal": "enrichment R"}, "values": [{"binder": "B1", "binding signal": 0.961}, {"binder": "B2", "binding signal": 0.81}, {"binder": "B3", "binding signal": 1.07}, {"binder": "B4", "binding signal": 0.668}, {"binder": "B5", "binding signal": 0.702}, {"binder": "B6", "binding signal": 1.06}, {"binder": "B7", "binding signal": 1.66}, {"binder": "B8", "binding signal": 0.838}, {"binder": "B9", "binding signal": 1.47}, {"binder": "B10", "binding signal": 2.29}, {"binder": "B11", "binding signal": 0.455}, {"binder": "B12", "binding signal": 2.14}, {"binder": "B13", "binding signal": 1.11}, {"binder": "B14", "binding signal": 0.538}]}]}
